Experimental data reported in publication PMC4336329 (PLoS ONE, 2015).
In all, about 310,000 compounds went through this assay and about 14,000 (4.5%) showed an effect of 50% or more. Effects have a minus sign here. The list shows a part of the results.

Biological target: human ether-à-go-go-related gene (hERG) potassium channel (human, UniProt Q12809)
Assay: primary screen, population patch clamp on CHO cells stably expressing hERG
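Note: peak tail current of the secondary pulse compared with the same well before compound.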

human ether-à-go-go-related gene (hERG) potassium channel, sequence (Q12809 whole entry, looked up): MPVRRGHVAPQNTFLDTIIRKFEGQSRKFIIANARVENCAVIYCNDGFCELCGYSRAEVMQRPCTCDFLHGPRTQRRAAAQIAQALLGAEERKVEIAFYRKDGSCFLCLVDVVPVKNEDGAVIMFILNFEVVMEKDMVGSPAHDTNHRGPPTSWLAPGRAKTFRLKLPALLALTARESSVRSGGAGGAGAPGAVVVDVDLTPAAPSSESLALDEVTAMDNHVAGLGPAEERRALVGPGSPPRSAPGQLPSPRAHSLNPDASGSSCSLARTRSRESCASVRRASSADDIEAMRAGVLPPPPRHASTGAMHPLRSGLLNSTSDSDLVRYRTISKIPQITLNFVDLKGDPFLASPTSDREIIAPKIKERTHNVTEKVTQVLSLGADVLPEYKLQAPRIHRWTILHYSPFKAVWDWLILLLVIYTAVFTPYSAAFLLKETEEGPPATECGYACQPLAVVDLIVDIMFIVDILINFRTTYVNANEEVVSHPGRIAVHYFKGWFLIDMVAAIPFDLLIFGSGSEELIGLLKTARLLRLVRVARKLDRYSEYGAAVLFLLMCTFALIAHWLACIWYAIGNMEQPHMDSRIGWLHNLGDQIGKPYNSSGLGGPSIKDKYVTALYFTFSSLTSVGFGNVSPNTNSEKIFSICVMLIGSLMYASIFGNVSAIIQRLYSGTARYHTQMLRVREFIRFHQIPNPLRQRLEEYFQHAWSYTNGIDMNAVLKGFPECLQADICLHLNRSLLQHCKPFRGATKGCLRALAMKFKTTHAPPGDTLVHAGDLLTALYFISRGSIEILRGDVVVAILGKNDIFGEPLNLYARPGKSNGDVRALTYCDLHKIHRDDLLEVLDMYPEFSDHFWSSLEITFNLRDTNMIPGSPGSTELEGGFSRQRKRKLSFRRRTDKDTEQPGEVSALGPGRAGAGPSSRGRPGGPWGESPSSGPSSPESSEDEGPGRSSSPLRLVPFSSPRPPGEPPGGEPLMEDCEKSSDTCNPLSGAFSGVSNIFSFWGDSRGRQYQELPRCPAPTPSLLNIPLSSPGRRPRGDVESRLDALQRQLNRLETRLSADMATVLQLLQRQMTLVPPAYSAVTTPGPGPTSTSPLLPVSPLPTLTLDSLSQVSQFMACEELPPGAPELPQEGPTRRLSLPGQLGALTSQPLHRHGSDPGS

| SMILES | hERG current change (%, negative = inhibition) at 10uM |
| --- | --- |
| O=C(COC(=O)CCNS(=O)(=O)c1cccs1)Nc1ccccc1 | -5.63% |
| Cc1cc(NC(=O)CCCn2nc(C)c([N+](=O)[O-])c2C)no1 | 14.4% |
| CCN(CC)CCNC(=O)c1ccc(NC(=O)c2cn(-c3ccccc3)nc2-c2cccs2)cc1 | -32.7% |
| Cc1nn(C(C)(C)C)c(OC(=O)c2ccc(Br)o2)c1Sc1ccccc1 | 1.31% |
| COc1ccc(OC)c2[nH]c(=O)c(CCNC(=O)COc3ccccc3)cc12 | -17.5% |
| O=C(Nc1ccccc1N1CCOCC1)c1ccc(N2CCOCC2)c([N+](=O)[O-])c1 | -20.7% |
| O=C(NC1CCN(Cc2ccccc2)CC1)C1CCN(S(=O)(=O)c2cccc([N+](=O)[O-])c2)CC1 | -8.03% |
| Cc1c(C)c2ccc(O[C@@H]3O[C@H](CO)[C@H](O)[C@H](O)[C@H]3O)cc2oc1=O | 15.8% |
| CC(C)(C)C(=O)Cn1ncc(N2CCOCC2)c(Cl)c1=O | -71.9% |
| O=C(COc1ncnc2ccccc12)N1CCN(C(=O)c2ccco2)CC1 | -2.22% |
| CCN(CC)c1ccc(C(=O)OCC(=O)NC(C)(C)C)cc1 | -0.0611% |
| COc1ccc(OCC(=O)N2CCCC(CO)(CCOc3ccccc3)C2)cc1 (stereo not shown) | -46.8% |
| CCc1ccc(/C=C2\SC(=S)N(CCC(=O)N3CCN(C)CC3)C2=O)cc1 | 13.8% |
| COc1ccccc1Nc1nc(NCC2CCCO2)c2ccccc2n1.Cl (stereo not shown) | -59.6% |
| Cc1cc(Cl)ccc1C(=O)C1CCCN(C(=O)CCN2CCCO2)C1 (stereo not shown) | -1.54% |
| CCCNc1nc2c(c(=O)[nH]c(=O)n2C)n1CCOc1ccccc1 | -39.8% |
| CCCCN(CCCC)NC(=O)c1ccccc1 | 5.03% |
| COc1ccccc1OC(=O)c1ccc(C)c(S(=O)(=O)N2CCOCC2)c1 | -24% |
| O=C(O)c1ccc(N2C(=O)CC(N3CCN(c4cccc(Cl)c4)CC3)C2=O)cc1 (stereo not shown) | -0.425% |
| Cc1nn(CC(=O)N2N=C(C(F)F)CC2(O)C(F)F)c(C)c1[N+](=O)[O-] (stereo not shown) | 4.07% |
| Cc1ccccc1-n1ncc2c1CC(C)(C)CC2NC(=O)C1=CC(=O)CC(C)(C)O1 (stereo not shown) | -4.61% |
| CCOC(=O)N1CCN(C2CCCN(C(=O)c3ccccc3SC)C2)CC1 (stereo not shown) | 12.6% |

| SMILES | hERG current change (%, negative = inhibition) at 10uM |
| --- | --- |
| CSC(=O)CC(=O)NC(=O)c1ccccc1 | 2.41% |
| CCOC(=O)c1nc(Nc2ccc(C)cc2)c2ccccc2n1 | -38.3% |
| Cc1ccc(S(=O)(=O)N2CCN(c3ncnc4scc(-c5ccc(F)cc5)c34)CC2)cc1 | 14.6% |
| CCn1c(C(=O)N2CCCC(C(=O)O)C2)cc2sccc21 (stereo not shown) | 14.4% |
| COC(=O)Cc1c(C)nc2nc(-c3ccco3)[nH]n2c1=O | -3.26% |
| COc1ccc(CCN(C)C(=O)c2ccc(C)c(S(=O)(=O)N3CCCCC3)c2)cc1OC | -20.9% |
| CCC/C=N/NC(=O)c1ccccc1O | 20.8% |
| Nc1cccc(O)c1 | 17.8% |
| COc1ccc(N=Nc2cnc(C)nc2-c2ccccc2)cc1 | 10.6% |
| COC(=O)c1c(NC(=O)COC(=O)[C@@H](NS(=O)(=O)c2cccc(Cl)c2)C(C)C)sc2c1CCC2 | 3.75% |
| O=C(Nc1nc2ccccc2n1CCN1CCCCC1)c1ccc(Cl)cc1 | -13.2% |
| Cc1ccc(CN2CCCN(Cc3ccc(F)cc3Cl)S2(=O)=O)cc1 | 11.7% |
| O=C(CCN1CCN(c2ccccc2F)CC1)Nc1ccccc1Cl | -2.49% |
| O=C(NCCc1ccccc1)C1CCN(S(=O)(=O)c2ccc(-n3cnnn3)cc2)CC1 | -66.3% |
| CCOc1ccc(C(=O)Nc2nc(C)cc(C)n2)cc1[N+](=O)[O-] | -49.6% |
| O=C(CN(c1ccc(Br)cc1)S(=O)(=O)c1ccc(Cl)c([N+](=O)[O-])c1)NCCc1ccccc1 | 29.4% |
| COC(=O)c1cc(C#N)c(SCc2ccccc2)nc1C | 11.8% |
| CCN(CCNC(=O)CS(=O)(=O)Cc1nc(-c2cccc(OC)c2)oc1C)c1ccccc1 | 1.04% |
| COc1c(O)cccc1[C@@H](O)C1CCN(CCc2ccc(F)cc2)CC1 | -55.8% |
| CNc1cnn(-c2ccc(C)cc2)c(=O)c1Sc1ccc(C)cc1 | -8.7% |
| Cc1ccc(S(=O)(=O)/N=C(\N)Nc2nc(C)c3cc(C)c(C)cc3n2)cc1 | -13.6% |
| CCNc1nc(NCC)nc(SCC(C)=O)n1 | 34.8% |

| SMILES | hERG current change (%, negative = inhibition) at 10uM |
| --- | --- |
| COc1ccc(/C=N/Nc2cc(C)nc(N3CCOCC3)n2)cc1OC | -0.783% |
| Cc1ccc(C(=O)N/N=C\c2cc3c(cc2Br)OCO3)s1 | 6.19% |
| CCn1nnnc1NCc1c(OC)ccc2ccccc12 | 0.28% |
| COc1ccc(Br)cc1/C=N/NC(=O)c1cccnc1 | -8.41% |
| Cc1cc(S(=O)(=O)N(Cc2ccccc2)Cc2ccc(N(C)C)cc2)ccc1-n1cnnn1 | -7.77% |
| CC(=O)Nc1ccc(N(C(=O)Cc2c[nH]c3ccccc23)C(C(=O)NC2CCCCC2)c2ccco2)cc1 (stereo not shown) | -13.1% |
| CCOc1cc(-c2sc(Nc3ccccc3)n[n+]2-c2ccc(F)cc2)ccc1OC.[Cl-] | 23.6% |
| CC(C)(C)NC(=O)[C@@H]1CN(Cc2cccnc2)CCN1C[C@@H](O)C[C@@H](Cc1ccccc1)C(=O)N[C@H]1c2ccccc2C[C@H]1O.O=S(=O)(O)O | -6.83% |
| O=C(c1ccc(Cn2c(=O)[nH]c3ccccc3c2=O)cc1)N1CCN(c2ccccn2)CC1 | 0.196% |
| Cl.Cn1nnnc1SCCNCc1ccncc1 | 0.895% |
| Cc1ccc(S(=O)(=O)N(C)CCCC(=O)Nc2ccc(C)cc2C)cc1 | -33.8% |
| CCNc1nnc(SCC(=O)c2c(N)n(C3CC3)c(=O)[nH]c2=O)s1 | 10.7% |
| COc1cc2c(cc1OC)C(C(=O)NCc1cccnc1)C(c1cccnc1)N(C)C2=O (stereo not shown) | 9.05% |
| O=C(Nc1nnc(-c2ccco2)s1)C1CC1 | -10.2% |
| CC1(C)CC(=O)C(C=NCC2CCN(C(=S)Nc3ccccc3)CC2)=C(O)C1 | -3.98% |
| C#CCOCCOCCOCCNc1nc(N2CCN(C(=O)[C@H]([C@@H](C)CC)n3cc([C@@H](N)Cc4ccc(O)cc4)nn3)CC2)nc(N2CCN(C(=O)[C@H](Cc3ccc(O)cc3)n3cc([C@@H](N)C(C)CC)nn3)CC2)n1.Cl (stereo partly shown) | -4.47% |
| COc1ccc(COC(=O)CN2C(=O)NC3(CCCC3)C2=O)cc1F | -3.03% |
| CCc1ccccc1NNC(=O)CCc1ccccc1 | 7.59% |
| O=C(COC(=O)CCNS(=O)(=O)c1ccccc1)NC(=O)Cc1ccccc1 | -6.79% |
| COCCNC(=O)C(=O)NCC1OCCN1S(=O)(=O)c1ccc(C)cc1 (stereo not shown) | 15.7% |
| COc1cc(-c2noc(C)c2C#CCO)cc(OC)c1OC | 6.47% |
| CCOC(=O)OC(C)OC1=C(C(=O)Nc2ccccn2)N(C)S(=O)(=O)c2ccccc21 (stereo not shown) | 16.1% |

| SMILES | hERG current change (%, negative = inhibition) at 10uM |
| --- | --- |
| Nc1nc(C2CC2)c(Sc2sc(N)nc2C2CC2)s1 | -1.16% |
| c1ccc(-c2nccnc2-c2ccccc2)cc1 | -8.23% |
| COCc1n[nH]c(=S)n1-c1cccc2ccccc12 | 18.2% |
| CC(=O)Nc1ccc(C(=O)OCCC(C)C)cc1 | -17.4% |
| O=C(CSc1nc2sccc2c(=O)[nH]1)N1CCN(c2ccccc2)CC1 | 0.279% |
| O=C(/C=C/c1ccccc1)NNC(=O)c1cccc(Cl)c1 | -2.03% |
| CCc1cccc(CC)c1NC(=O)COC(=O)CC1c2ccccc2CCN1S(=O)(=O)c1ccc(F)cc1 (stereo not shown) | -2.04% |
| Cc1ccc(S(=O)(=O)Nc2ccc(-c3nc4ccc(C)cc4s3)cc2)cc1 | 2.32% |
| Cc1ccc2nc(Nc3ncc4c(n3)CC(C)(C)CC4=O)nc(C)c2c1 | 15.3% |
| COC(=O)C1=C(c2ccccc2)C[C@@H]2CC[C@H]1N2C(=O)NC(C)C | -3.45% |
| CO/N=C/C1CCN(c2ncc(C(F)(F)F)cc2Cl)C1=O (stereo not shown) | 9.39% |
| CC(=NCCCNC1CCCCC1)C1=C(O)CC(C)(C)CC1=O | 10.8% |
| S=c1[nH]nc(Cn2cnc3ccccc32)n1-c1ccccc1 | 17.1% |
| COc1ccc(-c2cc(C(F)(F)F)nc(-n3cc(Cl)cn3)n2)cc1 | -18.5% |
| O=C(O)CCCC(=O)N1N=C(c2ccccc2)CC1c1ccc2c(c1)OCO2 (stereo not shown) | 21.2% |
| CC(=O)CCc1oc2c([N+](=O)[O-])cccc2c1-c1ccc(C)o1 | 29.1% |
| CN1CCSc2ccc(C(=O)NCc3cccc(F)c3)cc21 | 16.6% |
| CCOc1ccc(Cl)cc1CNCCNCC(C)O.Cl (stereo not shown) | -4.31% |
| COC(=O)c1sccc1NC(=O)c1ccc2c(c1)OCO2 | -6.39% |
